The results in this text go back to PubChem BioAssay AID360 (National Center for Advancing Translational Sciences (NCATS), 2006).

Out of some 48,000 compounds screened, about 550 (1.1%) were called active. Roughly 4% stayed inconclusive and do not appear here. Rule as the data show it: active = potency below about 15 µM; inconclusive = mostly about 16 µM to 33 µM; inactive = weaker than that. The list shows a part of the results.
Potency is read from the fitted curve at half-maximal effect.

Sequence of UniProt P04062 (P04062 whole entry, looked up): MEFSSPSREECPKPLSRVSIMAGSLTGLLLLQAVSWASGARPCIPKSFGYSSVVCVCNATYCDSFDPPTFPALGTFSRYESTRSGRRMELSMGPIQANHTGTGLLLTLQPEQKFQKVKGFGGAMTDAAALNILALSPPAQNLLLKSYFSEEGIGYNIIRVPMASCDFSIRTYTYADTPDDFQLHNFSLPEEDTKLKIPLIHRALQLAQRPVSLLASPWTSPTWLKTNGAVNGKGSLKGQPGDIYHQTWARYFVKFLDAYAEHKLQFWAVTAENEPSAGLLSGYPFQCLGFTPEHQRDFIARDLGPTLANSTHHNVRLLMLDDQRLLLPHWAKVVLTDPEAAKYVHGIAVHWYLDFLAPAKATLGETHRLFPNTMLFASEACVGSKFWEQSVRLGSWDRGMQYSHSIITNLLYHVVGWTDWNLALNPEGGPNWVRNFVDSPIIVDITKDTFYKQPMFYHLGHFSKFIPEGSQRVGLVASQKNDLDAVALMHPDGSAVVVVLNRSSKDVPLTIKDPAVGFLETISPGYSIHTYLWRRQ

The experiment concerns the target Lysosomal acid glucosylceramidase (Homo sapiens) (UniProt P04062). The experiment in a line: Glucocerebrosidase.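 Also: the screen sought inhibitors.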 As to conditions: purified enzyme, resorufin glucoside fluorescence (screen aimed at inhibitors), 20 min. The method, boiled down:
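Wild-type enzyme at 0.2 nM final in 50mM citric acid/KH2PO4, 10mM sodium taurocholate, 0.01% tween-20, pH 5.9, with resorufin beta-D-glucopyranoside at 30 uM final. Compounds titrated, 20 min at RT, red fluorescence read; AC50 from titration.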
As for `O=c1[nH]c2ccsc2c(=O)n1-c1ccc(F)c(Cl)c1`, the Potency is inactive: > 76.9 µM.
Next, `COCCCNC(=O)c1ccc(NS(C)(=O)=O)cc1`: inactive: > 76.9 µM; `O=C(CSc1nnc(COc2ccc(Cl)cc2)n1Cc1ccco1)c1ccccc1F`: inactive: > 76.9 µM; `COc1ccccc1C(c1nnnn1C(C)(C)C)N1CCN(Cc2ccncc2)CC1` (stereo not drawn): inactive: > 76.9 µM.
For `COc1cc(C(=O)Nc2ccc(NC(=O)C(C)C)nc2)cc(OC)c1OC`, the Potency was inactive: > 76.9 µM.
Consider `CCOC(=O)c1cc2c(=O)n3ccccc3nc2n(Cc2ccco2)c1=NC(=O)c1cccnc1`, for which the Potency is inactive: > 76.9 µM.
Regarding `COc1cc(S(=O)(=O)NCCN2CCOCC2)c(OC)cc1Cl`, the Potency was inactive: > 76.9 µM.
Turning to `COc1ccc(NC(=O)c2cnc3sccn3c2=O)cc1`, the Potency was inactive: > 76.9 µM.
With `O=C(CCN1C(=O)C2C3C=CC(C3)C2C1=O)N1CCN(c2cccc(Cl)c2)CC1` (stereo not drawn), the Potency was inactive: > 76.9 µM.
As to `CSc1nc(C)cc(OCC(=O)n2nc(C)cc2C)n1`, the Potency was inactive: > 76.9 µM.
Turning to `COc1cc(OC)cc(C(=O)N2CCN(c3ncccn3)CC2)c1`, the Potency was inactive: > 76.9 µM.
Regarding `Cc1ccc(Oc2ccccc2)c(NC=O)c1`, the Potency is inactive: > 76.9 µM.
As to `CCS(=O)(=O)n1nc(C(=O)N2CCOCC2)nc1N`, the Potency was inactive: > 76.9 µM.
For `Nn1c(SCC(=O)N2CCOCC2)nnc1-c1ccc(Cl)cc1Cl`, the Potency is inactive: > 76.9 µM.
`CC(=O)Nc1cccc(NC(=O)CSc2nnnn2C(C)C)c1`: the Potency is inactive: > 76.9 µM.
Under `CN(Cc1cccs1)C(=O)COc1ccc(-c2nnco2)cc1` stands inactive: > 76.9 µM.
In the case of `O=C(Nc1cccnc1)c1ccc(Br)s1`, the Potency result is “inactive”.
Under `COc1cccc(NC(=O)NC2CCN(Cc3nnnn3Cc3ccc(F)cc3)CC2)c1` stands inactive: > 76.9 µM.
For the compound `C=CCn1c(=N)c(C(=O)NCCCOC)cc2c(=O)n3ccccc3nc21`, the Potency was inactive: > 76.9 µM.
Under `COc1ccc(S(=O)(=O)N2CCC(C(=O)Nc3ccc(OC)c(OC)c3)CC2)cc1C` stands inactive: > 76.9 µM; under `Cc1ccc(-n2c(SCc3cn4ccsc4n3)nc3ccccc3c2=O)cc1`, “inactive”; under `COCc1nc(-c2ccc(-c3ccccc3)nc2OC)no1`, “inactive”.
Under `N#Cc1c(N)c(C#N)c(-c2ccc(O)cc2)c2c1CCCC2` stands inactive: > 76.9 µM; under `CCN(CC)CCN(Cc1cc2cc(C)ccc2[nH]c1=O)C(=O)Nc1ccccc1OC`, inactive: > 76.9 µM; under `CCOC(=O)C1=C(CN2CCSCC2)NC(=O)NC1c1cc(C)ccc1C` (stereo not drawn), inactive: > 76.9 µM.
In the case of `O=C(CSc1nc(-c2cccs2)cc(C(F)(F)F)n1)NCc1ccco1`, the Potency is inactive: > 76.9 µM.
As to `Cc1ccc2[nH]cc(C(=O)CN3CCN(c4ccccn4)CC3)c2c1`, the Potency was inactive: > 76.9 µM.
Turning to `Cc1cc(C)c(C#N)c(SCC(=O)N(C)C2CCCCC2)n1`, the Potency was inactive: > 76.9 µM.
For the compound `CCN1CCN(C(=O)CN(C)S(=O)(=O)c2ccc(OC)cc2)CC1`, the Potency is inactive: > 76.9 µM.
With `Cc1cccc(-c2nnc(SCC#N)n2Cc2ccccc2)c1`, the Potency was inactive: > 76.9 µM.
Turning to `COC(=O)CSc1nc2ccccc2c(=O)n1C`, the Potency is inactive: > 76.9 µM.
Turning to `O=C(COC(=O)c1ccccn1)NCCCc1ccccc1`, the Potency was inactive: > 76.9 µM.
For the compound `CC(C)(C)OC(=O)N1CCC(C(=O)O)CC1`, the Potency was inactive: > 76.9 µM.
Regarding `O=C(COc1ccc(F)c(Cl)c1)c1ccc[nH]1`, the Potency is inactive: > 76.9 µM.
Under `CC(=O)Nc1ccc(S(=O)(=O)Nc2cccc(N(C)S(C)(=O)=O)c2)cc1` stands inactive: > 76.9 µM; under `COc1ccc(-c2ccc(CCC(=O)O)n2NC(=O)c2cccs2)cc1`, inactive: > 76.9 µM; under `Cc1nnc(SCC(=O)Nc2cccc(C(F)(F)F)c2)n1Cc1ccco1`, inactive: > 76.9 µM.
As to `CCN1C(=O)C2(C(C#N)=C(N)Oc3n[nH]c(C(C)C)c32)c2ccccc21` (stereo not drawn), the Potency was inactive: > 76.9 µM.
Consider `COc1ccccc1OCCNC(=O)c1ccccc1C`, for which the Potency is inactive: > 76.9 µM.
`O=C(O)c1cc(-c2ccco2)nc2ccccc12`: the Potency was inactive: > 76.9 µM.
Under `O=S(=O)(NC1CCCc2ccccc21)c1cnc[nH]1` (stereo not drawn) stands inactive: > 76.9 µM; under `O=C(O)/C(=C1/OC(=O)c2ccccc21)c1ccccc1`, inactive: > 76.9 µM.
As to `Cc1occc1-c1nnc(SCC(=O)c2c(N)n(Cc3ccccc3)c(=O)n(C)c2=O)n1C`, the Potency was inactive: > 76.9 µM.
Regarding `O=C(Cn1ccc2ccccc2c1=O)N1CCN(c2cccc(Cl)c2)CC1`, the Potency was inactive: > 76.9 µM.
As for `CC1CC2(CC(C)(C(=O)CSc3n[nH]c(-c4ccccc4Cl)n3)OC2=O)C(=O)O1` (stereo not drawn), the Potency result is “inactive”.
In the case of `COc1ccc2[nH]c3nc(SCc4nnc(-c5ccccc5)o4)nnc3c2c1`, the Potency entry was “inactive”.
As for `CC(C)(Oc1cccc2ccccc12)C(=O)O`, the Potency was inactive: > 76.9 µM.
As to `CC(=O)N1CCN(CC(=O)Nc2c(Cl)cccc2Cl)CC1`, the Potency was inactive: > 76.9 µM.
Under `CCc1nnc(NC(=O)CCC(=O)N2CCN(Cc3ccc(Cl)cc3)CC2)s1` stands inactive: > 76.9 µM; under `O=C(CN1CCOCC1)Nc1ccccc1-c1ccccc1`, inactive: > 76.9 µM; under `Cn1cc(CNC(=O)C2CCCCC2)cn1`, inactive: > 76.9 µM.
Under `CCc1c(C(=O)N2CCOCC2)csc1C` stands inactive: > 76.9 µM.
On to `Cc1occc1C(=O)Nc1ccc2c(c1)OCCO2`, for which the Potency was inactive: > 76.9 µM.
Consider `O=C(CC1SC(=O)N(c2ccccc2)C1=O)Nc1ccccc1` (stereo not drawn), for which the Potency is inactive: > 76.9 µM.
Take `CCC(C)(C)NC(=O)C(OC(=O)c1ccco1)c1ccccc1OC` (stereo not drawn): the Potency is inactive: > 76.9 µM.
Consider `COc1ccccc1NC(=O)CN1CCN(CC(=O)Nc2cc(NC(C)=O)ccc2OC)CC1`, for which the Potency is inactive: > 76.9 µM.
`CCCC(=O)NC(C)C(c1cccs1)N1CCN(C)CC1` (stereo not drawn): the Potency was inactive: > 76.9 µM.
As to `O=C(CS(=O)(=O)Cc1ccccc1)Nc1nc2c(s1)CCCC2`, the Potency was inactive: > 76.9 µM.
On to `CCS(=O)(=O)NCCc1ccc(OC)c(OC)c1`, for which the Potency was inactive: > 76.9 µM.
On to `COC(=O)c1nc2n(n1)C(c1ccc(OC)c(OC)c1)C(C(=O)OC1CCCCC1)=C(C)N2` (stereo not drawn), for which the Potency was inactive: > 76.9 µM.
Regarding `Cc1c(/C(O)=C2/C(=O)C(=O)N(Cc3cccnc3)C2c2cccs2)cnn1-c1ccccc1` (stereo not drawn), the Potency was inactive: > 76.9 µM.
As for `O=c1[nH]c(CS(=O)(=O)c2ccccc2)nc2ccccc12`, the Potency was inactive: > 76.9 µM.
For the compound `Cc1cccc(N2CCN(C(=O)c3ccc(N4CCCC4=O)cc3)CC2)c1C`, the Potency is inactive: > 76.9 µM.
For `Cc1c(C(=O)O)oc2ccc(S(=O)(=O)N3CCC(C)CC3)cc12`, the Potency was inactive: > 76.9 µM.
Consider `CC(C)C(NC(=O)c1ccc(S(=O)(=O)N2CCOCC2)cc1)c1nc2ccccc2[nH]1` (stereo not drawn), for which the Potency was inactive: > 76.9 µM.
On to `CCOCCCNc1ncnc2c1[nH]c1ccccc12`, for which the Potency was inactive: > 76.9 µM.
As to `CCOC(=O)c1ccc(COC(=O)c2ccc(-c3nnc(-c4ccccc4)o3)cc2)o1`, the Potency is inactive: > 76.9 µM.
Next, `Cn1nccc1C(=O)Nn1cnnc1`: inactive: > 76.9 µM.
`CC1CCN(S(=O)(=O)c2cc(Br)cc(C(=O)NC3=NCCS3)c2)CC1`: the Potency was inactive: > 76.9 µM.
`COc1cccc(NC(=O)C2CCN(S(C)(=O)=O)CC2)c1`: the Potency was inactive: > 76.9 µM.
Regarding `Cc1cccc(OCCSc2nnc(-c3ccoc3C)n2C)c1`, the Potency is inactive: > 76.9 µM.
For the compound `COc1ccc(Cl)c(NC(=O)NCCN2CCN(c3ccccc3)CC2)c1`, the Potency is inactive: > 76.9 µM.
`COCc1nnc(SCC(=O)NC(C)c2ccccc2)n1-c1ccccc1` (stereo not drawn): the Potency was inactive: > 76.9 µM.
For the compound `COCCCNC(CC(=O)Nc1ccc(OC)cc1OC)C(=O)O` (stereo not drawn), the Potency is inactive: > 76.9 µM.
On to `O=C(CSc1nnc(-c2ccc3c(c2)OCCO3)o1)NC1CCCCC1`, for which the Potency is inactive: > 76.9 µM.
As to `CCOC(=O)C1CC=C(Cl)CC1C(=O)Nc1nccs1` (stereo not drawn), the Potency is inactive: > 76.9 µM.
Next, `N#CCCSc1ccccc1NC(=O)c1ccc(S(=O)(=O)N2CCCC2)cc1`: inactive: > 76.9 µM; `Cc1cc(NC(=O)CN2CCN(c3ncccn3)CC2)no1`: inactive: > 76.9 µM; `Cn1c(C(C#N)C(=O)c2ccco2)nc2ccccc21` (stereo not drawn): inactive: > 76.9 µM.
Next, `Clc1ccc(OCc2nnc(SCc3nnc(-c4ccccc4)o3)o2)c(Cl)c1`: inactive: > 76.9 µM; `COc1cc2[nH]c(=S)n(C3CCCC3)c(=O)c2cc1OC`: inactive: > 76.9 µM.
Regarding `Cc1occc1C(=O)Nc1cccc2ccccc12`, the Potency was inactive: > 76.9 µM.
As for `COc1ccccc1C(=O)N1CCN(CCc2ccccc2)CC1`, the Potency is inactive: > 76.9 µM.
On to `CCOc1ccc(N2C(=O)CC(N(O)c3ccccc3)C2=O)cc1` (stereo not drawn), for which the Potency is inactive: > 76.9 µM.
Turning to `Cc1ccc2c(COn3nnc4ccc(S(=O)(=O)N(C)C)cc43)cc(=O)oc2c1C`, the Potency is active: 10.6 µM.
For the compound `COc1ccc(Cn2c3nc4ccccc4nc3c3c(=O)n(Cc4ccco4)c(C)nc32)cc1`, the Potency was inactive: > 76.9 µM.
On to `COCc1nnc(NC(=O)c2ccc(NC(C)=O)cc2)s1`, for which the Potency is active: 6.81 µM.
Under `O=C(O)C1CSC2(CCN(Cc3ccccc3)CC2)N1` (stereo not drawn) stands inactive: > 76.9 µM; under `CCC(=O)c1ccc(N2CCN(C(=O)c3ccc(Br)cc3)CC2)c(F)c1`, inactive: > 76.9 µM; under `COc1cc(C2=NOC(C(=O)N3CCCCCC3)C2)cc(OC)c1OC` (stereo not drawn), inactive: > 76.9 µM.
As to `Clc1ncn(C23CC4CC(CC(C4)C2)C3)n1`, the Potency was inactive: > 76.9 µM.
For the compound `CCSc1nnc(NC(=O)CSc2nccn2-c2cc(C)cc(C)c2)s1`, the Potency was inactive: > 76.9 µM.
For `O=C1c2oc3ccccc3c(=O)c2C(c2cccs2)N1CCCN1CCOCC1` (stereo not drawn), the Potency is inactive: > 76.9 µM.
